Data reported in the supplement of paper PMC12217912.
Some of the results follow. Sequences were assembled here from the parent chain. Inactive controls read about 0.05.

B1: TEV protease; numbered along this chain (parent)
chain: MGESLFKGPRDYNPISSSICHLTNESDGHTTSLYGIGFGPFIITNKHLFRRNNGTLVVQSLHGVFKVKDTTTLQQHLVDGRDMIIIRMPKDFPPFPQKLKFREPQREERICLVTTNFQTKSMSSMVSDTSCTFPSGDGIFWKHWIQTKDGQCGSPLVSTRDGFIVGIHSASNFTNTNNYFTSVPKNFMELLTNQEAQQWVSGWRLNADSVLWGGHKVFMVKPEEPFQPVKEATQL

Variants of: B1
Test: raw area under fraction-flipped curve 0-4 h after induction (AUC4h, not background-subtracted), DNA-recorder readout of cleavage of the substrate (dimensionless); higher = more cleavage of the substrate by the protease variant
Conditions: temperature: 34 °C; time window: 0-4 h after rhamnose induction
Method: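 In vivo DNA recorder in E. coli TOP10(DE3) ΔrhaA at 34 °C. Each TEVp single-site mutant (parent TEVp 0) is paired with a single-site variant of the 7-mer TEVs (canonical ENLYFQ|S). The substrate sits between flexible linkers in a Bxb1-sfGFP-TEVs-SsrA fusion, so cleavage stabilises Bxb1 and speeds flipping of a recombination array, read by NGS. The value is the raw area under the fraction-flipped curve over 0-4 h after rhamnose induction (AUC4h), with ≥20 reads per time point. It is not background-subtracted; inactive controls average about 0.047.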
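Note: Bxb1 expression induced with 0.2% (w/v) L-rhamnose at OD600 near 0.5, cultures sampled hourly, flipped fraction per protease–substrate barcode pair counted by paired-end Illumina sequencing.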

Variant | area with substrate ENLYFQC | area with substrate ENLYFQF | area with substrate ENLYFQI | area with substrate ENLYFQK | area with substrate ENLYFQL | area with substrate ENLYFQP | area with substrate ENLYFQS | area with substrate ENLYFQT | area with substrate ENLYFQY | area with substrate ENLYFQD | area with substrate ENLYFQG | area with substrate ENLYFQH | area with substrate ENLYFQM | area with substrate ENLYFQN | area with substrate ENLYFQR | area with substrate ENLYFQV | area with substrate ENLYFQQ | area with substrate ENLYFQW
MGESLFKGPRDYNPISSSICHLTNESDGHTTSLYGIGFGPFIITNKHLFRRNNGTLVVQSLHGVFKVKDTTTLQQHLVDGRDMIIIRMPKDFPPFPQKLKFREPQREERICLVTTNFQTKSESSMVSDTSCTFPSGDGIFWKHWIQTKDGQCGSPLVSTRDGFIVGIHSASNFTNTNNYFTSVPKNFMELLTNQEAQQWVSGWRLNADSVLWGGHKVFMVKPEEPFQPVKEATQL [M122E] | 0.14 | 0.0629 | 0.0636 | 0.054 | 0.0746 | 0.0602 | 0.0983 | 0.0683 | 0.0814 |  |  |  |  |  |  |  |  | 
MGESLFKGPRDYNPISSSICHLTNESDGHTTSLYGIGFGPFIITNKHLFRRNNGTLVVQSLHGVFKVKDTTTLQQHLVDGRDMIIIRMPKDFPPFPQKLKFREPQREERICLVTTNFQTKSQSSMVSDTSCTFPSGDGIFWKHWIQTKDGQCGSPLVSTRDGFIVGIHSASNFTNTNNYFTSVPKNFMELLTNQEAQQWVSGWRLNADSVLWGGHKVFMVKPEEPFQPVKEATQL [M122Q] | 0.0877 |  | 0.0621 |  | 0.0541 | 0.0606 | 0.103 | 0.0592 | 0.0562 | 0.0812 | 0.0774 | 0.102 | 0.0741 | 0.0953 | 0.0605 | 0.0732 |  | 
MGESLFKGPRDYNPISSSICHLTNESDGHTTSLYGIGFGPFIITNKHLFRRNNGTLVVQSLHGVFKVKDTTTLQQHLVDGRDMIIIRMPKDFPPFPQKLKFREPQREERICLVTTNFQTKSMSSMNSDTSCTFPSGDGIFWKHWIQTKDGQCGSPLVSTRDGFIVGIHSASNFTNTNNYFTSVPKNFMELLTNQEAQQWVSGWRLNADSVLWGGHKVFMVKPEEPFQPVKEATQL [V126N] | 0.164 |  | 0.0669 |  | 0.0654 |  | 0.11 | 0.0752 | 0.0666 |  |  |  | 0.0926 | 0.0746 | 0.0634 | 0.0608 | 0.0667 | 0.0549
MGESLFKGPRDYNPISSSICHLTNESDGHTTSLYGIGFGPFIITNKHLFRRNNGTLVVQSLHGVFKVKDTTTLQQHLVDGRDMIIIRMPKDFPPFPQKLKFREPQREERICLVTTNFQTKSMSSMVDDTSCTFPSGDGIFWKHWIQTKDGQCGSPLVSTRDGFIVGIHSASNFTNTNNYFTSVPKNFMELLTNQEAQQWVSGWRLNADSVLWGGHKVFMVKPEEPFQPVKEATQL [S127D] | 0.107 |  | 0.0774 |  | 0.0541 | 0.0709 | 0.0925 | 0.0479 | 0.0914 |  | 0.0753 |  | 0.0973 | 0.0801 | 0.0562 | 0.0594 | 0.0643 | 0.0705
MGESLFKGPRDYNPISSSICHLTNESDGHTTSLYGIGFGPFIITNKHLFRRNNGTLVVQSLHGVFKVKDTTTLQQHLVDGRDMIIIRMPKDFPPFPQKLKFREPQREERICLVTTNFQTKSMSSMVSDQSCTFPSGDGIFWKHWIQTKDGQCGSPLVSTRDGFIVGIHSASNFTNTNNYFTSVPKNFMELLTNQEAQQWVSGWRLNADSVLWGGHKVFMVKPEEPFQPVKEATQL [T129Q] | 0.109 |  |  | 0.0815 | 0.0653 |  | 0.0977 | 0.0756 | 0.0862 | 0.0685 | 0.0894 |  | 0.0945 | 0.0917 | 0.0737 |  |  | 0.066
MGESLFKGPRDYNPISSSICHLTNESDGHTTSLYGIGFGPFIITNKHLFRRNNGTLVVQSLHGVFKVKDTTTLQQHLVDGRDMIIIRMPKDFPPFPQKLKFREPQREERICLVTTNFQTKSMSSMVSDTSCTFPAGDGIFWKHWIQTKDGQCGSPLVSTRDGFIVGIHSASNFTNTNNYFTSVPKNFMELLTNQEAQQWVSGWRLNADSVLWGGHKVFMVKPEEPFQPVKEATQL [S135A] | 0.0868 |  | 0.0649 | 0.0668 | 0.0414 | 0.0979 | 0.0793 | 0.0694 |  | 0.0721 | 0.0716 | 0.0622 | 0.0638 | 0.0542 | 0.0558 | 0.0496 | 0.0604 | 0.0567
MGESLFKGPRDYNPISSSICHLTNESDGHTTSLYGIGFGPFIITNKHLFRRNNGTLVVQSLHGVFKVKDTTTLQQHLVDGRDMIIIRMPKDFPPFPQKLKFREPQREERICLVTTNFQTKSMSSMVSDTSCTFPSGDGICWKHWIQTKDGQCGSPLVSTRDGFIVGIHSASNFTNTNNYFTSVPKNFMELLTNQEAQQWVSGWRLNADSVLWGGHKVFMVKPEEPFQPVKEATQL [F140C] | 0.0637 | 0.0564 | 0.0639 | 0.0616 | 0.061 |  | 0.0652 | 0.0749 | 0.0733 | 0.0563 | 0.072 | 0.0537 |  | 0.0555 | 0.0594 | 0.066 |  | 0.0616
MGESLFKGPRDYNPISSSICHLTNESDGHTTSLYGIGFGPFIITNKHLFRRNNGTLVVQSLHGVFKVKDTTTLQQHLVDGRDMIIIRMPKDFPPFPQKLKFREPQREERICLVTTNFQTKSMSSMVSDTSCTFPSGDGIKWKHWIQTKDGQCGSPLVSTRDGFIVGIHSASNFTNTNNYFTSVPKNFMELLTNQEAQQWVSGWRLNADSVLWGGHKVFMVKPEEPFQPVKEATQL [F140K] | 0.0622 | 0.0675 |  |  |  |  | 0.0645 | 0.0601 |  | 0.0756 |  |  | 0.0497 | 0.0599 | 0.0572 |  |  | 0.0653
MGESLFKGPRDYNPISSSICHLTNESDGHTTSLYGIGFGPFIITNKHLFRRNNGTLVVQSLHGVFKVKDTTTLQQHLVDGRDMIIIRMPKDFPPFPQKLKFREPQREERICLVTTNFQTKSMSSMVSDTSCTFPSGDGIFMKHWIQTKDGQCGSPLVSTRDGFIVGIHSASNFTNTNNYFTSVPKNFMELLTNQEAQQWVSGWRLNADSVLWGGHKVFMVKPEEPFQPVKEATQL [W141M] | 0.0742 | 0.0406 | 0.0561 | 0.0622 | 0.055 |  | 0.0725 | 0.0609 | 0.0563 |  | 0.0684 | 0.0597 | 0.0645 | 0.0431 | 0.0803 | 0.006 |  | 0.0605
